From the supplement of paper PMC11417369
± gives the standard deviation of the averaged measurements. This is one part of the list.

System: PfAP2-LT AP2 domain (GST-tagged)
Assay: gcPBM binding intensity (ln(normalized median fluorescence intensity)); higher = stronger DNA binding
In short: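 The highest Masliner-normalised natural-log median intensity across replicate spots of either probe orientation is reported as binding intensity. GST-tagged P. falciparum DNA-binding domains expressed in E. coli were applied for 1 h to an Agilent 4 × 180k array of primer-extended double-stranded 36-bp intergenic genomic probes plus negative controls, and bound protein was detected with Alexa488 anti-GST antibody and scanned at 488 nm.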

First: AGGAATTTATAAAATTGTACTTTTAATTACCTACAG [XGTACX_site3153]
Second: CAAACATTTTAATGTACACACACCCACAGACAAACA [CACACA_site5522]
The “gcPBM binding intensity (ln)” value of the first is lower: 8.6 ± 0.49 for the first, 9.57 ± 0.13 for the second.

“TTCTTTTTGAAATATTAACACACATTTTGTTAATTA [CACACA_site9337]” and “ATATCTTATATCTTCACACATACACAATAAATACAT [CACACA_site5028]” are within error of each other in “gcPBM binding intensity (ln)” value: 8.73 ± 0.52 for the first, 8.98 ± 0.43 for the second.

“CTAAGAAGTATTTACACACCAACAAGGCGAAAAAAA [CACACA_site2945]” and “AATGTATTCTCTCATGCACACTTTCTTTAAGGGACC [CACACA_site5245]” are within error of each other in “gcPBM binding intensity (ln)” value: 8.93 ± 0.45 for the first, 8.91 ± 0.37 for the second.

“TAATATATTATGAGGGGTACATAATATGGTTTATTG [XGTACX_site8301]” and “ATATTTATATTTATGTGTACATATGAAATAATTATT [XGTACX_site7765]” are within error of each other in “gcPBM binding intensity (ln)” value: 8.81 ± 0.41 for the first, 8.71 ± 0.4 for the second.

Going from “ATTCATATTAAATATATATATATATATATATATATA [CACACA_negctrl_site484]” to “GAAGAAAAAGAAAAAAGTACATATATTATATTATAA [XGTACX_site7870]”, the “gcPBM binding intensity (ln)” value falls from 9.31 ± 0.028 to 8.53 ± 0.61.

“GTTTTTAAATATGCCATACACACTACTATATAATAA [CACACA_site1927]” and “TAATATATTAATTTTTGTACTTAATTATATGTTTTT [XGTACX_site5654]” are within error of each other in “gcPBM binding intensity (ln)” value: 8.71 ± 0.35 for the first, 8.62 ± 0.45 for the second.

“TAAGATGATATAGACTGTACATATTGAACTTACAAG [XGTACX_site4290]” and “TATGAAATGCTCCAATCACACATGAATGTAATATAT [CACACA_site5458]” are within error of each other in “gcPBM binding intensity (ln)” value: 8.69 ± 0.49 for the first, 8.73 ± 0.35 for the second.

“ATATGATTTATAAAGTGTACCTTATTATAAGAAACA [XGTACX_site7914]” and “TTTTTTTTTTTTAGAGTACACACTTTTTTACATTTA [CACACA_site3836]” are within error of each other in “gcPBM binding intensity (ln)” value: 8.48 ± 0.45 for the first, 8.65 ± 0.52 for the second.

“GTTGAAAATACAGAACGTACACGTTTGCCATATTGT [XGTACX_site2254]” and “AGTTATAAAATATTTGCATGTAAATATATTATCTAT [TGCATGCA_site1015]” are within error of each other in “gcPBM binding intensity (ln)” value: 8.96 ± 0.39 for the first, 8.74 ± 0.37 for the second.

“ACTTTTATTATTTATATACACACTTGCTGAAATGTT [CACACA_site3637]” and “ATAAAAAAAAGAAAAACACACACATATATATATATA [CACACA_site8243]” are within error of each other in “gcPBM binding intensity (ln)” value: 9.31 ± 0.47 for the first, 9.77 ± 0.27 for the second.

“ATAATAATAGTAATATGTACATATATATATATATAT [XGTACX_site7437]” and “ATATATATATATATATGTACATATTTACATTTTGTA [XGTACX_site3529]” are within error of each other in “gcPBM binding intensity (ln)” value: 9.77 ± 0.33 for the first, 9.89 ± 0.36 for the second.

“AATAAAGGAGCCTATGAACACACACCGGTACATATA [CACACA_site9352]” and “TATACACATTCGCGTTGTACAAAAAAAAAAAAAAAG [XGTACX_site2880]” are within error of each other in “gcPBM binding intensity (ln)” value: 9.33 ± 0.51 for the first, 8.76 ± 0.52 for the second.

“AAGATGAACCTTTACACATGCAACAAAAAATATACA [TGCATGCA_site166]” and “ATCAACATTATGTTTAGTACTTAGTGAATTGTTAAT [XGTACX_site4913]” are within error of each other in “gcPBM binding intensity (ln)” value: 8.81 ± 0.55 for the first, 8.79 ± 0.28 for the second.

“TTTTTATGATTATACTTATATAATTTCATGATTGAA [CACACA_negctrl_site228]” and “AATATTTCTATATGAACATGCAATGTATCTTTTTAT [TGCATGCA_site738]” are within error of each other in “gcPBM binding intensity (ln)” value: 8.45 ± 0.48 for the first, 8.7 ± 0.4 for the second.

“AATACTTACCAAAATACACACACACCCAAAATATAT [CACACA_site8559]” and “TTTATTTTATCATTTGCACACGCACCCCCACATAAA [CACACA_site8007]” are within error of each other in “gcPBM binding intensity (ln)” value: 9.85 ± 0.31 for the first, 9.52 ± 0.14 for the second.

“TTCTAAATTAATAATACACACTTGCTAAAATCATTA [CACACA_site5733]” and “TTCTTATATTGTACAGTACACACCTTTATAATGTTA [CACACA_site7953]” are within error of each other in “gcPBM binding intensity (ln)” value: 8.5 ± 0.45 for the first, 9.15 ± 0.49 for the second.

“ATATAAATAACGTGTACACACATATGTATTTATATA [CACACA_site6520]” and “ATTCTCCATGTTTGATGTACTCATATGACGACGGAG [XGTACX_site4923]” are within error of each other in “gcPBM binding intensity (ln)” value: 9.12 ± 0.31 for the first, 8.81 ± 0.33 for the second.

“AATTATATTTGAAATACACACATAAAAACCATATAG [CACACA_site7598]” and “TCAAAAAAGACACACCGTACATACTATTTGGACAGG [XGTACX_site7699]” are within error of each other in “gcPBM binding intensity (ln)” value: 9.12 ± 0.28 for the first, 8.97 ± 0.34 for the second.

“ATTTTTATTTTATATACACACAATAATACTAGAATA [CACACA_site7810]” and “AGATATATAAAATATACACACAGTAATATTTATATA [CACACA_site6767]” are within error of each other in “gcPBM binding intensity (ln)” value: 8.78 ± 0.5 for the first, 8.89 ± 0.33 for the second.

“ATATATATCTACATATGTACATATATACATTACACA [XGTACX_site7210]” and “ATTTCATATGGTCAACGTACTCATGCATCCCTCCTT [XGTACX_site437]” are within error of each other in “gcPBM binding intensity (ln)” value: 9.06 ± 0.33 for the first, 9.05 ± 0.6 for the second.

TAAATTTTTTTTTTGATGCACTTAGTTATTATATTT and “ATAACAATTATTTATCTACACACTTTTATGTTATTT [CACACA_site7886]” are within error of each other in “gcPBM binding intensity (ln)” value: 8.68 ± 0.47 for the first, 9.07 ± 0.48 for the second.

“AATGGCAAAATAGGCACACACACATATACAGATATA [CACACA_site4726]” and “ATATATATATATATATGTACATATAATTTTTTTTTT [XGTACX_site6948]” are within error of each other in “gcPBM binding intensity (ln)” value: 9.77 ± 0.42 for the first, 9.56 ± 0.16 for the second.

“TTTATATTAATTTGTGTAAATGCATATGATGAGCAT [XGTACX_negctrl_site254]” and “AAAAATAAAACAATTACACACATAATTTTATTTTTA [CACACA_site928]” are within error of each other in “gcPBM binding intensity (ln)” value: 8.52 ± 0.35 for the first, 8.76 ± 0.38 for the second.

“TCCAAAATATCCTTCACACACGAACAGTTTCATTTA [CACACA_site5511]” and “ATTAAGTCTTATATTACACACGACATTGTAATGTAA [CACACA_site528]” are within error of each other in “gcPBM binding intensity (ln)” value: 8.96 ± 0.49 for the first, 8.86 ± 0.25 for the second.

“ATTCCACTGTTTTAGTGTACTGGTCGTTTTTTTTTT [XGTACX_site1738]” and “AATTTTTTATACACAAGTACAAACGCGTAGTCACTT [XGTACX_site2458]” are within error of each other in “gcPBM binding intensity (ln)” value: 9.18 ± 0.45 for the first, 8.86 ± 0.42 for the second.

“TGGACCAAACGACAAAAAAAAAGCAGAAAACAAAAA [GTGCAC_negctrl_site693]” and “AAATAAAGAATATAAATACACACTTAAATATATATT [CACACA_site4007]” are within error of each other in “gcPBM binding intensity (ln)” value: 8.84 ± 0.53 for the first, 8.88 ± 0.47 for the second.

“TTTTTAAAAAAAAAAAAATAAAAAAAAAAAAAATAT [XGTACX_negctrl_site7]” and “ATTTATATATTTATATGTACATATCTATACATATAT [XGTACX_site7580]” are within error of each other in “gcPBM binding intensity (ln)” value: 8.3 ± 0.48 for the first, 9.38 ± 0.67 for the second.

“GAATTTTTGACGATATAGGAAATAATTATCCTGAAG [XGTACX_negctrl_site61]” and “CTGTTAATTATATATTGTACAAAAGATATGATTATA [XGTACX_site6927]” are within error of each other in “gcPBM binding intensity (ln)” value: 8.51 ± 0.29 for the first, 8.55 ± 0.35 for the second.

With “ACAAAAAAATAAAATATATATATATATATAATATAT [CACACA_negctrl_site805]” the “gcPBM binding intensity (ln)” value was 8.98 ± 0.43.
